Six molecules from US20220340635A1, “FUSION PROTEIN FOR TREATMENT OF METABOLIC DISEASE” (ZHEJIANG DOER BIOLOGICS CORPORATION, priority 2019, published 2022) can be followed below.

Residue numbers refer to the chain shown, from its start.

B1: G402L1F6: SEQ ID NO.86: dimeric fusion protein that does not contain the C-terminal sequence of Exendin-4 (protein)
chain: HSQGTFTSDYSKYLDEEAAQDFVQWLLDGGGGGSGGGGSGGGGSA[letters of human IgG4 Fc with S228P N297A (EU numbers) omitted]
modifications: Amino acid sequence of G402L1F6
B2: G382L1F6: SEQ ID NO.84: dimeric fusion protein that does not contain the C-terminal sequence of Exendin-4 (protein)
chain: B1 chain with E16S, E17Q
modifications: Amino acid sequence of G382L1F6
B3: G232L1F6: SEQ ID NO.82: dimeric fusion protein that does not contain the C-terminal sequence of Exendin-4 (protein)
chain: B1 chain with E17Q, D28A
modifications: Amino acid sequence of G232L1F6
B4: G352L1F6: SEQ ID NO.83: dimeric fusion protein that does not contain the C-terminal sequence of Exendin-4 (protein)
chain: B1 chain with E16S, E17Q, D28A
modifications: Amino acid sequence of G352L1F6
B5: G395L1F6: SEQ ID NO.85: dimeric fusion protein that does not contain the C-terminal sequence of Exendin-4 (protein)
chain: B1 chain with D28A
modifications: Amino acid sequence of G395L1F6
B6: A001L1F6: SEQ ID NO.51: active protein in which natural Glucagon was fused with FC; control (protein)
chain: B1 chain with E16S, E17R, A18R, L27M, D28N, G29T
modifications: Amino acid sequencea of active protein A001L1F6
notes: control

T1 sequence (P43220 24-463): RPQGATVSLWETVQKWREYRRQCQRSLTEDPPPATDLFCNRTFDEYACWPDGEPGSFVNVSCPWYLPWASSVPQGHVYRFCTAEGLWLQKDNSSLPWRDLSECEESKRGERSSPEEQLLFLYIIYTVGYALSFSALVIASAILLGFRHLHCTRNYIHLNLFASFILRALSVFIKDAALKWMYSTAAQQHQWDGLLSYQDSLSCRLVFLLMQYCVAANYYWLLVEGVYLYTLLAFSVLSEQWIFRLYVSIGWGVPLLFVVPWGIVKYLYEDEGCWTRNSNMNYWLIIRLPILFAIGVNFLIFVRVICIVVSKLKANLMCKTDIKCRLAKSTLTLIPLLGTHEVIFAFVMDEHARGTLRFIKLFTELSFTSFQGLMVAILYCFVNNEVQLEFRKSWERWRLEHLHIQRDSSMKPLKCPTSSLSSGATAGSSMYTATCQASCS
Sequence of Recombinant DPP-IV enzyme (P27487 whole entry, species assumed): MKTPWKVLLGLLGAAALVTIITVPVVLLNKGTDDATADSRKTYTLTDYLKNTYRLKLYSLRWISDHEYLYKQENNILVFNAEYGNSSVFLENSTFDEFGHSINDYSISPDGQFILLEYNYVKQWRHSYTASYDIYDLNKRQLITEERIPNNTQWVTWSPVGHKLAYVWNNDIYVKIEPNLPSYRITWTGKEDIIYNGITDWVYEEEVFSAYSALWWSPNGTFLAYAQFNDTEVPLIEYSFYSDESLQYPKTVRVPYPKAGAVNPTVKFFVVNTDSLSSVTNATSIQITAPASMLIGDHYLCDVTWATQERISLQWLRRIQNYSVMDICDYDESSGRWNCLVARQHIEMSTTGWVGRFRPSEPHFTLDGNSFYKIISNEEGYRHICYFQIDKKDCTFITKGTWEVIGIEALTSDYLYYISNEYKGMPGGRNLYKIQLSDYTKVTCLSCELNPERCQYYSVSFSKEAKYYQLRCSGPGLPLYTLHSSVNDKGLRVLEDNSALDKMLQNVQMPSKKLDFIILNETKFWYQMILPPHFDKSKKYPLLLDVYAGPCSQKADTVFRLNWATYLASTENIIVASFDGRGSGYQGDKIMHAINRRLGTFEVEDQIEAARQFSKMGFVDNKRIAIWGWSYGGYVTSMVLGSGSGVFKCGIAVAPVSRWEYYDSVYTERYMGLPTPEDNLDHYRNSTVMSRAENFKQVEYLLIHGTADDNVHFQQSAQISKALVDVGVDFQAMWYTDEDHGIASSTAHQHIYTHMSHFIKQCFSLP

One data set addresses T1, human GLP-1R (Homo sapiens, UniProt P43220).
T1 construct: expressed in transfected cells
Kind of data set: GLP-1R agonist bioactivity assay, luciferase reporter gene, CHO/GLP-1R cells. Type of data set: cell-based. The following applies: ratio of GLP-1R agonist activity before and after addition of C-terminal extension peptide Cex from Exendin-4. On the procedure: The GLP-1R agonist bioactivity assay was carried out using a luciferase reporter gene detection method. The human GLP-1R gene was cloned into mammalian cell expression plasmid pCDNA3.1 to construct a recombinant expression plasmid pCDNA3.1-GLP-1R, and the full-length luciferase gene was cloned into pCRE-EGFP plasmid to replace the EGFP gene to obtain a pCRE-Luc recombinant plasmid. CHO cells were transfected with pCDNA3.1-GLP-1R and pCRE-Luc plasmids at a molar ratio of 1:10. and stably transfected expression strains were selected to obtain recombinant CHO/GLP-1R stably transfected cell strains.
The cells were cultured in a 9-cm cell dish with DMEM/F12 medium containing 10% FBS and 300 μg/ml G418. When the confluence reached about 90%, the supernatant was discarded. The cells were digested in 2 ml trypsin for 3 min and neutralized in 2 ml DMEM/F12 medium before transferring to a 15 ml centrifuge tube. The tube was centrifuged at 1000 rpm for 5 min. Supernatant was discarded and 2 ml DMEM/F12 medium containing 10% FBS and 300 μg/ml G418 was added for resuspension and counting. The cells were diluted to 5×10^5/mL with DMEM/F12 medium containing 10% FBS. Plating 100 μl in each well of a 96-well plate, i.e., 5×10^4 per well. After adherence, the cells were cultured in DMEM/F12 medium containing 0.2% FBS overnight. […] The cells were cultured for 6 h stimulation before detection. The assay is carried out according to the instructions of Lucifersae reporter kit (Ray Biotech, Cat: 68-LuciR-S200).
A general note: Reporter assays use an easily measured gene product as a stand-in for the process of interest.
In the case of B1, the Activity ratio a is recorded as 214.

As to B2, the Activity ratio a is reported as 234. On to B3, for which the Activity ratio a worked out at 212. Consider B4, for which the Activity ratio a came to 219. As to B5, the Activity ratio a stood at 234.

The next data set addresses Recombinant DPP-IV enzyme (Homo sapiens, UniProt P27487). The data set can be described thus: DPP-IV enzyme resistance (GCGR bioactivity after DPP-IV treatment). The format is in vitro ADME.
Details: not given
On the procedure: The purified fusion protein was dissolved in 10 mM of HEPES buffer (containing 0.05 mg/ml BSA) to a final concentration of 5 μM. Recombinant DPP-IV enzyme (final concentration of 10 nM) was added and incubated at 37° C. for 24 hours before detection of GCGR bioactivity. Activity retention rate=(activity after DPP-IV enzyme treatment/activity before DPP-IV enzyme treatment)×100%.
With B6, the “Resistance to DPP-IV (in words)” value was “neither A001L1F6 (SEQ ID NO.51) nor A012L1F6 (SEQ ID NO.52) showed obvious signs of resistance to DPP-IV”.
